Measured values taken from the supplement of paper PMC9446081.
Among all 39,000 compounds or so, about 220 (0.56%) showed activity. This is one part of the list.

Tested on: Escherichia coli K-12 BW25113
Assay: relative growth (OD600 normalised to plate interquartile mean) (fraction); higher = less growth inhibition, active = 0.2 or less
Settings: 50 µM; LB; incubation time: overnight (16-24 h)
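Further: static incubation at 37 °C against the wild-type strain, values averaged over two biological replicates.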

SMILES	relative growth
C[C@@H]1CN([C@H](C)CO)S(=O)(=O)c2ccc(C#CC3(O)CCCC3)cc2O[C@H]1CN(C)C(=O)Nc1ccc(F)cc1	inactive: 0.981
COc1ccc2c3c([nH]c2c1)[C@@H](CO)N(CC1CCCC1)C[C@]13CCN(CC1)C(=O)Nc1cccc(c1)F	inactive: 1.02
CN1C(=O)c2cc(NC(=O)Cc3cccs3)ccc2OC[C@@H]2O[C@@H](CC(=O)NCCCN3CCOCC3)CC[C@@H]21	inactive: 1.01
C[C@H](CO)N1C[C@H](C)[C@H](CN(C)Cc2ccc(-c3ccccc3)cc2)Oc2ccc(NC(=O)Nc3ccc(C(F)(F)F)cc3)cc2C1=O	inactive: 1.01
CO[C@@H]1CN(C)C(=O)c2cc(NC(=O)c3ccccc3)ccc2OC[C@H](C)N(C(=O)CN(C)C)C[C@H]1C	inactive: 1.02
C[C@H](CO)N1C[C@H](C)[C@H](CN(C)C(=O)NC2CCCCC2)Oc2c(NC(=O)Nc3cccc4ccccc34)cccc2C1=O	inactive: 1.01
Cc1noc(C)c1S(=O)(=O)Nc1ccc2c(c1)C(=O)N([C@H](C)CO)C[C@H](C)[C@H](CN(C)Cc1ccc(C(=O)O)cc1)O2	inactive: 0.992
CC(C)NC(=O)Nc1ccc2c(c1)C(=O)N([C@@H](C)CO)C[C@H](C)[C@@H](CN(C)C(=O)Nc1ccc(F)cc1)OCCCC[C@H](C)O2	inactive: 1.04
C[C@@H]1CN([C@H](C)CO)C(=O)c2cc(NC(=O)Nc3ccc4c(c3)OCO4)ccc2O[C@@H](C)CCCCO[C@H]1CN(C)C(=O)C1CCCCC1	inactive: 1.01
C[C@H](CO)N1C[C@H](C)[C@@H](CN(C)Cc2ccc(-c3ccccc3)cc2)Oc2c(NS(=O)(=O)c3ccc(Cl)cc3)cccc2C1=O	inactive: 1.02
C[C@@H]1CN([C@H](C)CO)C(=O)c2cc(NC(=O)Nc3ccc4c(c3)OCO4)ccc2O[C@@H](C)CCCCO[C@@H]1CN(C)Cc1ccc(C(F)(F)F)cc1	inactive: 0.999
CS(=O)(=O)Nc1ccc2oc3c(OC(F)F)ccc(C(=O)Nc4c(Cl)cncc4Cl)c3c2c1	inactive: 1.07
C=CC[C@@H](CC(=O)NCCO)C(=O)N[C@@H](C)COC(=O)[C@@H](CC=C)NC(=O)OCC1c2ccccc2-c2ccccc21	inactive: 0.986
CNC[C@@H]1Oc2ccc(NS(=O)(=O)c3cn(C)cn3)cc2CC(=O)N([C@@H](C)CO)C[C@@H]1C	inactive: 0.918
Cc1cn([C@H]2C[C@H](O)[C@@H](CO)O2)c(=O)[nH]c1=O	inactive: 1.03
C[C@@H]1CN([C@@H](C)CO)C(=O)c2cc(Br)cnc2O[C@H]1CN(C)Cc1ccccc1C(=O)O	inactive: 0.993
